Results reported in US20230192795A1 (Hoffmann-La Roche, published 2023).

T1: IL-7Rα/IL-2Rγ on human T cells (human, UniProt P16871 21-459; P31785 23-369)
T1 sequence (looked up) 1: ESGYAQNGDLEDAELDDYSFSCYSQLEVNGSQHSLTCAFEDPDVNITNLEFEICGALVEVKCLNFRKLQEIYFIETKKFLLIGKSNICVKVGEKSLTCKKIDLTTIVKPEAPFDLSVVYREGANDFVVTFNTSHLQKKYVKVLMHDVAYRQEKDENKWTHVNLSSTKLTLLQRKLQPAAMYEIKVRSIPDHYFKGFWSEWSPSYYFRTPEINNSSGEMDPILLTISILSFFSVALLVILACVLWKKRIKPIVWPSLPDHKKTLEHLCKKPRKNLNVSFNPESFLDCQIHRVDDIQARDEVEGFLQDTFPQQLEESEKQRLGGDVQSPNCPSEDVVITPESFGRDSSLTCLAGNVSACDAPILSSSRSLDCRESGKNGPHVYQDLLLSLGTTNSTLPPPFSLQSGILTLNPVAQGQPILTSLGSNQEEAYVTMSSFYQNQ
T1 sequence (looked up) 2: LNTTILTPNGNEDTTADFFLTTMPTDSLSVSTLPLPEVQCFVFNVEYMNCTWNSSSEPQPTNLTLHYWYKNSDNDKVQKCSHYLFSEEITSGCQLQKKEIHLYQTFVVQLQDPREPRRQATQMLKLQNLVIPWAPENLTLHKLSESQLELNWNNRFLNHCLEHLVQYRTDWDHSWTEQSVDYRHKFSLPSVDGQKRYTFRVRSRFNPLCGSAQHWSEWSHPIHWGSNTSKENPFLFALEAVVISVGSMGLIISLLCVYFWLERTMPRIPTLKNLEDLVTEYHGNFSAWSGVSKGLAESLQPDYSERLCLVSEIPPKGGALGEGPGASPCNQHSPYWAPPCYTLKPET

B1: PD1-IL7-VAR13 (D74A) (other)
light: DIVMTQSPDSLAVSLGERATINCKASESVDTSDNSFIHWYQQKPGQSPKLLIYRSSTLESGVPDRFSGSGSGTDFTLTISSLQAEDVAVYYCQQNYDVPWTFGQGTKVEIKRTVAAPSVFIFPPSDEQLKSGTASVVCLLNNFYPREAKVQWKVDNALQSGNSQESVTEQDSKDSTYSLSSTLTLSKADYEKHKVYACEVTHQGLSSPVTKSFNRGEC
heavy 1: EVQLLESGGGLVQPGGSLRLSCAASGFSFSSYTMSWVRQAPGKGLEWVATISGGGRDIYYPDSVKGRFTISRDNSKNTLYLQMNSLRAEDTAVYYCVLLTGRVYFALDSWGQGTLVTVSSASTKGPSVFPLAPSSKSTSGGTAALGCLVKDYFPEPVTVSWNSGALTSGVHTFPAVLQSSGLYSLSSVVTVPSSSLGTQTYICNVNHKPSNTKVDKKVEPKSCDKTHTCPPCPAPEAAGGPSVFLFPPKPKDTLMISRTPEVTCVVVDVSHEDPEVKFNWYVDGVEVHNAKTKPREEQYNSTYRVVSVLTVLHQDWLNGKEYKCKVSNKALGAPIEKTISKAKGQPREPQVCTLPPSRDELTKNQVSLSCAVKGFYPSDIAVEWESNGQPENNYKTTPPVLDSDGSFFLVSKLTVDKSRWQQGNVFSCSVMHEALHNHYTQKSLSLSPGK
heavy 2: EVQLLESGGGLVQPGGSLRLSCAASGFSFSSYTMSWVRQAPGKGLEWVATISGGGRDIYYPDSVKGRFTISRDNSKNTLYLQMNSLRAEDTAVYYCVLLTGRVYFALDSWGQGTLVTVSSASTKGPSVFPLAPSSKSTSGGTAALGCLVKDYFPEPVTVSWNSGALTSGVHTFPAVLQSSGLYSLSSVVTVPSSSLGTQTYICNVNHKPSNTKVDKKV[human IgG1 Fc with changes left out]GGGGSGGGGSGGGGSDCDIEGKDGKQYESVLMVSIDQLLDSMKEIGSNCLNNEFNFFKRHICDANKEGMFLFRAARKLRQFLKMNSTGAFDLHLLKVSEGTTILLNCTGQVKGRKPAALGEAQPTKSLEENKSLKEQKKLNDLCFLKRLLQEIKTCWNKILMGTKEH
notes: Format as m1; IL-7 with D74A
B2: PD1-IL7-VAR14 (D74K) (other)
light: B1 light
heavy 1: B1 heavy 1
heavy 2: EVQLLESGGGLVQPGGSLRLSCAASGFSFSSYTMSWVRQAPGKGLEWVATISGGGRDIYYPDSVKGRFTISRDNSKNTLYLQMNSLRAEDTAVYYCVLLTGRVYFALDSWGQGTLVTVSSASTKGPSVFPLAPSSKSTSGGTAALGCLVKDYFPEPVTVSWNSGALTSGVHTFPAVLQSSGLYSLSSVVTVPSSSLGTQTYICNVNHKPSNTKVDKKV[human IgG1 Fc with changes left out]GGGGSGGGGSGGGGSDCDIEGKDGKQYESVLMVSIDQLLDSMKEIGSNCLNNEFNFFKRHICDANKEGMFLFRAARKLRQFLKMNSTGKFDLHLLKVSEGTTILLNCTGQVKGRKPAALGEAQPTKSLEENKSLKEQKKLNDLCFLKRLLQEIKTCWNKILMGTKEH
notes: Format as m1; IL-7 with D74K
B3: PD1-IL7-VAR15 (L77A) (other)
light: B1 light
heavy 1: B1 heavy 1
heavy 2: EVQLLESGGGLVQPGGSLRLSCAASGFSFSSYTMSWVRQAPGKGLEWVATISGGGRDIYYPDSVKGRFTISRDNSKNTLYLQMNSLRAEDTAVYYCVLLTGRVYFALDSWGQGTLVTVSSASTKGPSVFPLAPSSKSTSGGTAALGCLVKDYFPEPVTVSWNSGALTSGVHTFPAVLQSSGLYSLSSVVTVPSSSLGTQTYICNVNHKPSNTKVDKKV[human IgG1 Fc with changes left out]GGGGSGGGGSGGGGSDCDIEGKDGKQYESVLMVSIDQLLDSMKEIGSNCLNNEFNFFKRHICDANKEGMFLFRAARKLRQFLKMNSTGDFDAHLLKVSEGTTILLNCTGQVKGRKPAALGEAQPTKSLEENKSLKEQKKLNDLCFLKRLLQEIKTCWNKILMGTKEH
notes: Format as m1; IL-7 with L77A; also called PD1-IL7 -L77A (Var15)
B4: PD1-IL7-VAR16 (L77K) (other)
light: B1 light
heavy 1: B1 heavy 1
heavy 2: EVQLLESGGGLVQPGGSLRLSCAASGFSFSSYTMSWVRQAPGKGLEWVATISGGGRDIYYPDSVKGRFTISRDNSKNTLYLQMNSLRAEDTAVYYCVLLTGRVYFALDSWGQGTLVTVSSASTKGPSVFPLAPSSKSTSGGTAALGCLVKDYFPEPVTVSWNSGALTSGVHTFPAVLQSSGLYSLSSVVTVPSSSLGTQTYICNVNHKPSNTKVDKKV[human IgG1 Fc with changes left out]GGGGSGGGGSGGGGSDCDIEGKDGKQYESVLMVSIDQLLDSMKEIGSNCLNNEFNFFKRHICDANKEGMFLFRAARKLRQFLKMNSTGDFDKHLLKVSEGTTILLNCTGQVKGRKPAALGEAQPTKSLEENKSLKEQKKLNDLCFLKRLLQEIKTCWNKILMGTKEH
notes: Format as m1; IL-7 with L77K; also called PD1-IL7 -L77K (Var16)
B5: PD1-IL7-VAR17 (K81A) (other)
light: B1 light
heavy 1: B1 heavy 1
heavy 2: EVQLLESGGGLVQPGGSLRLSCAASGFSFSSYTMSWVRQAPGKGLEWVATISGGGRDIYYPDSVKGRFTISRDNSKNTLYLQMNSLRAEDTAVYYCVLLTGRVYFALDSWGQGTLVTVSSASTKGPSVFPLAPSSKSTSGGTAALGCLVKDYFPEPVTVSWNSGALTSGVHTFPAVLQSSGLYSLSSVVTVPSSSLGTQTYICNVNHKPSNTKVDKKV[human IgG1 Fc with changes left out]GGGGSGGGGSGGGGSDCDIEGKDGKQYESVLMVSIDQLLDSMKEIGSNCLNNEFNFFKRHICDANKEGMFLFRAARKLRQFLKMNSTGDFDLHLLAVSEGTTILLNCTGQVKGRKPAALGEAQPTKSLEENKSLKEQKKLNDLCFLKRLLQEIKTCWNKILMGTKEH
notes: Format as m1; IL-7 with K81A

What was measured:
[1] = target: T2, Human IL7Ra-IL2Rγ-Fc heterodimer (human, biotin on the avi tag); experiment: SPR, captured from supernatant, 800 nM receptor-Fc single injection
T2 construct: Extracellular domains of IL-7Ralpha and IL-2Rgamma fused to Fc knob and Fc hole; also called hu IL7Ra-IL2Rγ-Fc avi biotin; human IL7Ra-IL2Rg-Fc biotin
Experimental: Surface Plasmon Resonacne (SPR) experiments were performed on a Biacore T200 with HBS-EP+ as running buffer (0.01 M HEPES pH 7.4, 0.15 M NaCl, 0.005% Surfactant P20 (BR-1006-69, GE Healthcare)). Fc specific antibodies (Roche internal) were directly immobilized by amine coupling on a CM5 chip (GE Healthcare). The PDI-IL7 constructs were captured from supernatants for 120 s at 100 nM. […] Only the extracellular domains were fused to Fc domains, produced in HEK Expi Cells and purified by two-step column chromatography including affinity purification via Protein A followed by size-exclusion chromatography. A single injection of 800 nM hu IL 7Ra-IL2Rγ-Fc heterodimer was passed over the ligand at 30 µ1/min for 240 sec to record the association phase. The dissociation phase was monitored for 360 s and triggered by switching from the sample solution to HBS-EP+. The chip surface was regenerated after every cycle using one injection of 10 mM glycine pH 2 for 60 sec. Bulk refractive index differences were corrected for by subtracting the response obtained on the reference flow cell 1. The response units after the capture step and at the end of the association phase were recorded and a ratio of binding to capture was calculated. The single binding curves were fitted in the dissociation phase to obtain a koff for ease of comparison (Biacore Evaluation software, GE Healthcare).
The ratio of binding to capture was calculated and the dissociation phase was fitted to a single curve to support the characterization of the off-rate.

[2] = target: T1, IL-7Rα/IL-2Rγ on human T cells; experiment: cell-based or functional assay
human PD-1 on T cells = human PD-1 on T cells (human, UniProt Q15116 25-288); experiment: cell-based or functional assay
Chain of human PD-1 on T cells (Q15116 25-288 limits assumed): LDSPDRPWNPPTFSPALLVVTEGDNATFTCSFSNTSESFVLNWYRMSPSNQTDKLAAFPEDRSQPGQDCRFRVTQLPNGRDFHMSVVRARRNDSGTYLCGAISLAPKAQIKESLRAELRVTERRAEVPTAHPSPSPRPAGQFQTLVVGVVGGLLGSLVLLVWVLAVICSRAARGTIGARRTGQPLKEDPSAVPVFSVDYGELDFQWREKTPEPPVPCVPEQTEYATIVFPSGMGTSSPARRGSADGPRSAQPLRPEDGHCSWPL

Binder	koff [1]	fold increase in EC50, EC50 [PD1+]/EC50 PD1-IL7wt [PD1+] [2]	fold increase in EC50, EC50 [with PD1bl]/EC50 [PD1+] (human PD-1 on T cells)
B1	0.000681 s⁻¹	–	–
B2	0.000802 s⁻¹	–	–
B3	0.000945 s⁻¹	1.2 fold	4.6 fold
B4	0.00119 s⁻¹	1.5 fold	5 fold
B5	0.000648 s⁻¹	–	–
